{
  "source": "PubChem BioAssay AID1345083",
  "about": "(National Center for Advancing Translational Sciences (NCATS), 2018)",
  "note": "In all, about 94,000 compounds went through this assay and about 6,200 (6.6%) were called active. The inconclusive results got no clear call from the source; some entries with a clear call stand among them for comparison. Calls come from the whole dose curve; as a rule, active = well fitted inhibition curve with a large enough effect; inconclusive = small, poorly fitted or top-dose-only effect; inactive = flat fitted curve, though single readings scatter. A potency beside an inconclusive call is a rough fit, not a confirmed value. Potency is the fitted concentration of half-maximal effect; tags give direction and shape of the fitted curve.",
  "data": [
    {"experiment": "Cytotoxic Profiling in HEK 293 Cell Line of Diverse Libraries Using Quantitative High-Throughput Screening; note: nearly all actives have a fitted effect of over 60% in size", "conditions": "HEK 293 viability, ATP luminescence (CellTiter-Glo), 48-72 h; series mostly up to 115 µM", "procedure,_shortened": "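CellTiter-Glo luminescence (cellular ATP) was read after 48 or 72 hr of compound exposure at 37 degree Celsius. Cells were HEK 293 plated at 250 cells/well.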", "values": [
      {"smiles": "O=C(c1cccnc1)N1CCC(N2C(=O)C(OCC3CC3)C23CCOCC3)CC1", "note": "(stereo not drawn)", "Potency": "inconclusive: 100 µM [inhibitor, single point]"},
      {"smiles": "O=c1[nH]c(C2CCCN(Cc3ccccn3)C2)nn1-c1ccccc1", "note": "(stereo not drawn)", "Potency": "inconclusive: 11.2 µM [inhibitor, full curve, poor fit]"},
      {"smiles": "COc1ccccc1-c1cccc(C(=O)N2CCN(C(=O)c3ccc(Cl)nc3)CC2)c1", "Potency": "inconclusive: 56.2 µM [inhibitor, partial curve, poor fit]"},
      {"smiles": "COc1ccc(-c2noc([C@@H]3C[C@@H](O)CN3C3CCCCC3)n2)cc1", "Potency": "inconclusive: 100 µM [inhibitor, partial curve, poor fit]"},
      {"smiles": "COc1cc(NC(=O)Cn2c(N(C)Cc3ccccc3)nc(C)cc2=O)cc(OC)c1", "Potency": "active: 15.8 µM"},
      {"smiles": "N#Cc1ccccc1CN1CCCC(C(=O)NCc2ccccc2)CCNC(=O)CC1", "note": "(stereo not drawn)", "Potency": "inactive"},
      {"smiles": "COc1cc(F)ccc1-c1cc(-c2c(C)noc2C)cc2c1C(=O)N(C)C2=O", "Potency": "inconclusive: 112 µM [inhibitor, partial curve, poor fit]"},
      {"smiles": "COc1ccc(F)cc1-c1cccc(C(=O)NCCNC(=O)Nc2ccccc2)c1", "Potency": "active: 50.1 µM"},
      {"smiles": "COc1ccc(C(=O)N2CCc3nc(-c4ccccc4)nc(-c4ccc(OC)cc4)c3C2)cc1", "Potency": "inconclusive: 25.1 µM [inhibitor, full curve, poor fit]"},
      {"smiles": "CC(=O)N[C@H]1CO[C@H]2[C@@H]1OC[C@@H]2Nc1nccc(-c2cccc(F)c2)n1", "Potency": "inconclusive: 100 µM [inhibitor, partial curve]"},
      {"smiles": "O=C1NCCCCCCN(Cc2ccc3c(c2)CCO3)[C@H]2CCC[C@@H]12", "Potency": "inconclusive: 89.1 µM [inhibitor, single point]"},
      {"smiles": "O=C(NCc1ccccn1)c1csc(N2CCN(c3ccccc3)CC2)n1", "Potency": "active: 39.8 µM"},
      {"smiles": "CC1(CNc2ccccc2)COc2ccc(C(=O)NCCc3ccccc3)cc2N1", "note": "(stereo not drawn)", "Potency": "inconclusive: 50.1 µM [inhibitor, full curve, poor fit]"},
      {"smiles": "CCOc1cccc(CN2CC[C@@](C)(O)[C@H](N3CCCC3)C2)c1", "Potency": "inactive"},
      {"smiles": "CCOCC1(C)COc2ccc(C(=O)Nc3cccc(Cl)c3)cc2N1", "note": "(stereo not drawn)", "Potency": "active: 63.1 µM"},
      {"smiles": "CC1=C[C@@H](CNC(=O)N2CCOCC2)[C@H](C(C)C)C[C@H]1Cc1nc2ccccc2n1C", "Potency": "active: 63.1 µM"},
      {"smiles": "O=C(c1cc(C2CC2)nc2onc(C3CCNC3)c12)N1CCCCC1", "note": "(stereo not drawn)", "Potency": "inactive"},
      {"smiles": "COc1ccc(CNC(=O)C(N)c2c(C)n[nH]c2C)c(F)c1F", "note": "(stereo not drawn)", "Potency": "inactive"},
      {"smiles": "O=C(c1ccccc1Cl)N1CCc2nc(-c3ccc(Cl)cc3)nc(-c3ccccc3)c2C1", "Potency": "active: 25.1 µM"},
      {"smiles": "COc1ccccc1C(=O)NC1CCCN(c2ccc3nnc(C)n3n2)C1", "note": "(stereo not drawn)", "Potency": "inconclusive: 79.4 µM [inhibitor, partial curve, poor fit]"},
      {"smiles": "CN(C)c1ccc(C(=O)N2CCN(c3cc(-c4cccs4)[nH]n3)CC2)cc1", "Potency": "inconclusive: 35.5 µM [inhibitor, partial curve, poor fit]"},
      {"smiles": "O=C(Nc1ccc([C@@H](O)[C@H]2COCC(=O)N2Cc2ccc(F)cc2)cc1)C1CCC1", "Potency": "inconclusive: 126 µM [inhibitor, single point]"},
      {"smiles": "O=C(c1nc2cccnc2n(Cc2ccccc2)c1=O)N1CCN([S+](=O)([O-])c2cccs2)CC1", "Potency": "inconclusive: 70.8 µM [inhibitor, partial curve, poor fit]"},
      {"smiles": "c1coc(CN2CCc3c(sc4ncnc(N5CCOCC5)c34)C2)c1", "Potency": "inconclusive: 89.1 µM [inhibitor, single point]"},
      {"smiles": "Fc1ccc(CN2Cc3[nH]cnc3C[C@H]2c2nc(-c3ccc(Cl)cc3)no2)cc1", "Potency": "active: 63.1 µM"},
      {"smiles": "CCn1nc(CC(C)C)cc1C(=O)N(C)Cc1noc2c1CCCC2", "Potency": "inconclusive: 50.1 µM [inhibitor, partial curve, poor fit]"},
      {"smiles": "Cc1ccccc1S(=O)(=O)N1CCCCCCNC(=O)[C@@H]2CCC[C@@H]21", "Potency": "inconclusive: 44.7 µM [inhibitor, partial curve]"},
      {"smiles": "Cc1cccc(C(=O)N2CC(N(C)Cc3cccnc3)C2)c1", "Potency": "inactive"},
      {"smiles": "COC(=O)c1ccc(CNC(=O)CC2c3cccnc3C(=O)N2c2c(Cl)cccc2Cl)cc1", "note": "(stereo not drawn)", "Potency": "inconclusive: 39.8 µM [inhibitor, single point]"},
      {"smiles": "CC1(C)[C@H](Cc2cc(-c3ccc(F)cc3)on2)C[C@@H]1NS(C)(=O)=O", "Potency": "active: 70.8 µM"},
      {"smiles": "CCOc1cccc(CNC(=O)c2noc(-c3ccc(C)cc3)n2)c1", "Potency": "inconclusive: 89.1 µM [inhibitor, single point]"},
      {"smiles": "Cc1cc(Cn2cc3c4c(cccc42)[C@H](CC(C)C)N[C@H](C(=O)NCC2CC2)C3)no1", "Potency": "active: 79.4 µM"},
      {"smiles": "c1ccc(CN2CCNc3cnc(-c4ccc(N5CCOCC5)cc4)cc3C2)cc1", "Potency": "active: 50.1 µM"},
      {"smiles": "Cn1cccc1CN1CCCCC12Cc1ccccc1CNC2=O", "note": "(stereo not drawn)", "Potency": "inconclusive: 112 µM [inhibitor, single point]"},
      {"smiles": "CC(C)Cc1cc(C[C@@H]2C[C@H](NC(=O)NC(C)C)C2(C)C)no1", "Potency": "inconclusive: 70.8 µM [inhibitor, partial curve]"},
      {"smiles": "CC1CCN(CC2CCCNCC2)CC1", "note": "(stereo not drawn)", "Potency": "inconclusive: 89.1 µM [inhibitor, single point]"},
      {"smiles": "O=C(NC1CCN(c2cc(-c3ccc(Cl)cc3)[nH]n2)C1)c1cccnc1", "note": "(stereo not drawn)", "Potency": "inconclusive: 39.8 µM [inhibitor, partial curve]"},
      {"smiles": "O=C(NC[C@H]1OC[C@@H](N(Cc2ccccc2)Cc2ccccc2)[C@@H]1O)Nc1ccccc1", "Potency": "active: 79.4 µM"},
      {"smiles": "COc1cccc(CNC(=O)c2cn3cc(-c4cccnc4)sc3n2)c1", "Potency": "inactive"},
      {"smiles": "O=C(NC1CCCCCC1)c1cn2cc(-c3ccc(F)cc3)sc2n1", "Potency": "inactive"},
      {"smiles": "COc1cccc([S+](=O)([O-])N2CCC3(C2)C(=O)N(Cc2ccccc2)c2ccccc23)c1", "note": "(stereo not drawn)", "Potency": "inconclusive: 28.2 µM [inhibitor, partial curve, poor fit]"},
      {"smiles": "CC(C)c1nnc(C2CN(C(=O)c3ccc(F)c(F)c3)CC23CCOCC3)o1", "note": "(stereo not drawn)", "Potency": "inactive"},
      {"smiles": "CCS(=O)(=O)N1C[C@@H](Oc2cccnc2)C[C@H]1C(=O)N1CCOCC1", "Potency": "inactive"}
    ]}
  ]
}
